60 compounds from PubChem BioAssay AID360 (National Center for Advancing Translational Sciences (NCATS), 2006) can be followed below.

The campaign covered roughly 48,000 compounds. About 550 (1.1%) were called active. Inconclusive results (about 4%) are left out. Rule as the data show it: active = potency below about 15 µM; inconclusive = mostly about 16 µM to 33 µM; inactive = weaker than that. This is one part of the list.
Potency is read from the fitted curve at half-maximal effect.

Chain of UniProt P04062 (P04062 whole entry, looked up): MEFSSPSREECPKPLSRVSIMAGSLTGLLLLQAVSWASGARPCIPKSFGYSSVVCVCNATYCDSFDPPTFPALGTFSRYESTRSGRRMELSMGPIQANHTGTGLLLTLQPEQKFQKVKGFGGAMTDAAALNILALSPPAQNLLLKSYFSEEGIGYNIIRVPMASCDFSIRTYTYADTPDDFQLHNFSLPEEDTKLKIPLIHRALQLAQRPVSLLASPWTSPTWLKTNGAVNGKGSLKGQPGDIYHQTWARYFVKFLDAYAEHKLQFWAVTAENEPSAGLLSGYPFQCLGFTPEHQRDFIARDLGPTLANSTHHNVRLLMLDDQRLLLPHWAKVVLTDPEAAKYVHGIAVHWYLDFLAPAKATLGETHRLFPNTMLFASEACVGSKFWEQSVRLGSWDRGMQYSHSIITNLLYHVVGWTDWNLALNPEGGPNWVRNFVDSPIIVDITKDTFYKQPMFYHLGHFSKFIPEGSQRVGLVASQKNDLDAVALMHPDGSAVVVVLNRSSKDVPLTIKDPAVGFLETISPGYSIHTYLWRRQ

The assay concerns the target Lysosomal acid glucosylceramidase (Homo sapiens) (UniProt P04062). Description: Glucocerebrosidase.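 Also: the screen sought inhibitors.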 The note with it: purified enzyme, resorufin glucoside fluorescence (screen aimed at inhibitors), 20 min; series mostly up to 77 µM. Put shortly:
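Wild-type enzyme at 0.2 nM final in 50mM citric acid/KH2PO4, 10mM sodium taurocholate, 0.01% tween-20, pH 5.9, with resorufin beta-D-glucopyranoside at 30 uM final. Compounds titrated, 20 min at RT, red fluorescence read; AC50 from titration.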
Turning to `c1ccc(CSc2nncn2-c2ccccn2)cc1`, the Potency is inactive: > 76.9 µM. To `COCCn1c(C)cc(C(=O)CN2C(=O)NC3(CCCCCCC3)C2=O)c1C` belongs inactive: > 76.9 µM; to `CC1(C)NC(=O)N(CC(O)CN2C(=O)CCC2=O)C1=O` (stereo not given), inactive: > 76.9 µM; to `CCn1c(CNC(=O)c2ccc(OC)c(OC)c2)nnc1SCC(=O)c1ccc(OC)cc1`, inactive: > 76.9 µM. On to `Cc1ccccc1Cn1nc(C)c(NC(=O)c2noc3c2CCCC3)c1C`, for which the Potency was inactive: > 76.9 µM. `CC1(c2ccc3noc(-c4ccccc4)c3c2)OCCO1`: the Potency was inactive: > 76.9 µM.

Take `Cc1nnc(SCC(=O)Nc2ccc3c(c2)OCCO3)n1CC1CCCO1` (stereo not given): the Potency was inactive: > 76.9 µM.

`CC1CN(c2ncnc3c2oc2ccccc23)CC(C)O1` (stereo not given): the Potency is inactive: > 76.9 µM. As to `O=C(O)c1oc2ccccc2c1CSc1ccccn1`, the Potency is inactive: > 76.9 µM. As for `CC(C)(C)c1cc(C(=O)O)nn1-c1ccccc1`, the Potency is inactive: > 76.9 µM. To `CN1C(=O)c2oc3ccccc3c(=O)c2C1c1ccccn1` (stereo not given) belongs inactive: > 76.9 µM; to `COC(=O)c1cccc(NC(=O)c2cccc(OC)c2)c1`, inactive: > 76.9 µM. To `CCOC(=O)C(C)Sc1nnc2n1C(C)(C)Cc1ccccc1-2` (stereo not given) belongs inactive: > 76.9 µM; to `Cc1cccc(CCN(Cc2cc3cccc(C)c3[nH]c2=O)C(=O)N2CCOCC2)c1`, inactive: > 76.9 µM. In the case of `CCOC(=O)c1cc2sccc2n1CC(=O)Nc1ccc(OC)c(OC)c1`, the Potency is inactive: > 76.9 µM. To `O=C(CSc1nnc(-c2cccs2)o1)N1CCOCC1` belongs inactive: > 76.9 µM.

For the compound `COc1cc(C(=O)Nc2cc(C)ccn2)cc(OC)c1OC`, the Potency was inactive: > 76.9 µM. Then `C=CCn1c(SCc2ccc(C#N)cc2)nnc1-c1cccc(Cl)c1`, with inactive: > 76.9 µM; and `Cc1ccc2c(c1C)NC(C)CC2C` (stereo not given), with inactive: > 76.9 µM. To `COc1ccc(CCN2C(=O)C3C4C=CC(C4)C3C2=O)cc1OC` (stereo not given) belongs inactive: > 76.9 µM; to `O=C(CN1C(=O)C2C3C=CC(C3)C2C1=O)NCc1ccc2c(c1)OCO2` (stereo not given), inactive: > 76.9 µM. Then `Cc1onc(-c2c(F)cccc2Cl)c1C(=O)NCCc1ccc(S(N)(=O)=O)cc1`, with inactive: > 76.9 µM; and `COc1ccccc1C(=O)Nc1nnn(C)n1`, with inactive: > 76.9 µM.

As to `COC(=O)C1C(=O)c2c(n[nH]c2C)CC1(C)C` (stereo not given), the Potency is inactive: > 76.9 µM.

With `Cn1c(SCc2nc3ccccc3[nH]2)nnc1-c1cnccn1`, the Potency is inactive: > 76.9 µM.

Turning to `CCOCCCNS(=O)(=O)c1ccc(NC(=O)c2ccccc2)cc1`, the Potency is inactive: > 76.9 µM. To `O=C(O)CCc1nc(-c2ccc(Cl)cc2)no1` belongs inactive: > 76.9 µM; to `O=C(OCC(=O)N1CCN(C(=O)c2ccco2)CC1)c1ccccc1C(=O)c1ccccc1`, inactive: > 76.9 µM; to `COc1ccc(-c2noc(C)c2-c2ccc3ccccc3n2)c(O)c1`, inactive: > 76.9 µM.

Regarding `Cc1cc2c(c(=O)n1Cc1ccco1)C(c1cccnc1)C(C#N)=C(N)O2` (stereo not given), the Potency was inactive: > 76.9 µM. To `Cc1nn(-c2ccc(F)cc2)c2sc(C(=O)O)cc12` belongs inactive: > 76.9 µM; to `Cn1c(SCC(=O)N2CCCc3ccccc32)nnc1-c1c[nH]c2ccccc12`, inactive: > 76.9 µM.

On to `CCc1ccc(OCC(=O)OC2CCS(=O)(=O)C2)cc1` (stereo not given), for which the Potency is inactive: > 76.9 µM. For `CCc1ccc(OCCCC(=O)O)c(Br)c1`, the Potency is inactive: > 76.9 µM. To `CC1(C)Oc2ccc(C(=O)NC3CCCC3)cc2N(CC(=O)N2CCOCC2)C1=O` belongs inactive: > 76.9 µM.

For `CCOC(=O)c1ccc(NC(=O)COC)cc1`, the Potency is inactive: > 76.9 µM. As to `CC(=O)Nc1ccc(N2CCN(C(C)=O)CC2)cc1`, the Potency was inactive: > 76.9 µM. To `Cn1cccc1C(=S)N=P(C1CCCCC1)(N1CCOCC1)N1CCOCC1` belongs inactive: > 76.9 µM. Then `CCOC(=O)c1cc2sccc2n1CC(=O)N1CCc2ccccc21`, with inactive: > 76.9 µM; and `O=C(Nc1ccccc1)c1cccnc1N1CCOCC1`, with inactive: > 76.9 µM. To `Cc1nn(Cc2ccc(Cl)cc2)c(C)c1NC(=O)c1cc(-c2ccc3c(c2)OCO3)on1` belongs inactive: > 76.9 µM. Consider `COCCCn1c(=S)[nH]c2ccc(N3CCOCC3)cc2c1=O`, for which the Potency was inactive: > 76.9 µM. To `Cc1nc2ccccn2c1C(=O)NCCCN1CCOCC1` belongs inactive: > 76.9 µM; to `COc1ccc(CC(=O)Nc2cc(C)ccn2)cc1`, inactive: > 76.9 µM; to `O=C(Nc1nccs1)C1CCCN1S(=O)(=O)c1ccc(Cl)cc1` (stereo not given), inactive: > 76.9 µM. Then `CCc1ccc(N/C(SCc2cccc(F)c2)=C(/C#N)C(=O)NCc2ccco2)cc1`, with inactive: > 76.9 µM; and `COc1ccc(CCNC(=O)c2ccc(CN3CCOCC3)cc2)cc1`, with “inactive”; and `On1onc2c3cc(-c4ccccc4)nc3ccc21`, with active: 14.7 µM.

In the case of `CC1=C(C(=O)NCc2ccccc2)C(c2cccnc2)n2ncnc2N1` (stereo not given), the Potency is inactive: > 76.9 µM. Then `O=C1c2cccnc2C(O)N1Cc1ccccc1` (stereo not given), with inactive: > 76.9 µM; and `O=C(Nc1cccnc1)C1(c2ccccc2)CCCC1`, with inactive: > 76.9 µM; and `Cc1ccc(NC(=O)CSc2nnc(-c3cnccn3)n2Cc2ccco2)cc1`, with inactive: > 76.9 µM.

Consider `O=C(O)Cn1nnn(-c2ccccc2)c1=S`, for which the Potency was inactive: > 76.9 µM. To `COc1cc(C(=O)Nc2ccncc2)cc(OC)c1OC` belongs inactive: > 76.9 µM; to `Cn1c(=O)c2c(nc(NCCc3ccccc3)n2CC(=O)NCCc2ccccc2)n(C)c1=O`, inactive: > 76.9 µM; to `O=C(CCS(=O)(=O)c1cc(Br)cc2c1N(C(=O)C1CC1)CC2)NCc1ccco1`, inactive: > 76.9 µM. To `COc1cc(OC)c(NC(=O)Nc2ccc(OC)c(OC)c2)cc1Cl` belongs inactive: > 76.9 µM; to `COc1ccc(OC)c(/C=c2\sc3nc(-c4cccs4)nn3c2=O)c1`, inactive: > 76.9 µM.

Turning to `CCOC(=O)N1CCN(C(=O)C2CCC(C(=O)N3CCN(C(=O)OCC)CC3)CC2)CC1` (stereo not given), the Potency was inactive: > 76.9 µM.

With `CC(=O)N1CCc2cc(S(=O)(=O)NC3CCCc4ccccc43)ccc21` (stereo not given), the Potency was inactive: > 76.9 µM.
